Here are results for 12 compounds from patent US11420968B2 (priority 2018, dated 2022).

Like-named read-outs stand apart in the source and are kept apart here. Some results are limits rather than exact numbers.

In one test the test system is RS4;11 cells. The experiment in a line: cells. As to conditions: Homo sapiens.
A further test deals with Molt-4 cells. The experiment in a line: cells. Conditions: Homo sapiens.
The mark [1] stands for this setting: RS4-11, 48 h, read-out: Cellular activity (IC50, nM) RS4;11.
Where [2] appears, read: MOLT-4, read-out: Cellular activity (IC50, nM) Molt-4.
[3] abbreviates: RS4-11, 48 h, read-out: Cellular activity (IC50, nM) RS4, 11.

In the case of `O=C(NS(=O)(=O)c1ccc(NCC2CCOCC2)c([N+](=O)[O-])c1)c1ccc(N2CCC3(CC2)CC(N2CCCC2c2cc(Cl)ccc2C2CC2)C3)cc1Oc1cnc2[nH]ccc2c1` (centres unmarked) [Example F73, 2-((1H-pyrrolo[2,3-b]pyridin-5-yl)oxy)-4-(2-(2-(5-chloro-2-cyclopropylphenyl)pyrrolidin-1-yl)-7-azaspiro[3.5]nonan-7-yl)-N -((3-nitro-4-(((tetrahydro-2H -pyran-4-yl)methyl)amino)phenyl)sulfonyl)benzamide], the IC50 in the test on RS4;11 cells (setting [1]) is 63 nM; with Molt-4 cells (setting [2]) it was greater than 10000 nM.

Regarding `O=C(NS(=O)(=O)c1ccc(OCC2(F)CCOCC2)c([N+](=O)[O-])c1)c1ccc(-c2ccc(N3CCCC3c3ccccc3Cl)cc2)cc1Oc1cnc2[nH]ccc2c1` (centres unmarked) [Example G1, 3-((1H-pyrrolo[2,3-b]pyridin-5-yl)oxy)-4′-(2-(2-chlorophenyl)pyrrolidin-1-yl)-N-((4-((4-fluorotetrahydro-2H-pyran-4-yl)methoxy)-3-nitrophenyl)sulfonyl)-[1,1′-biphenyl]-4-carboxamide], the results for the IC50 with RS4;11 cells (setting [3]) and in the test on Molt-4 cells (setting [2]) were 88 nM and 6770 nM, respectively.

For the compound `CCN1CCN(C2CC3(CCN(c4ccc(C(=O)NS(=O)(=O)c5ccc(NCC6CCOCC6)c([N+](=O)[O-])c5)c(Oc5cnc6[nH]ccc6c5)c4)CC3)C2)C(c2ccccc2C2CC2)C1` (centres unmarked) [Example F130, 2-((1H-pyrrolo[2,3-b]pyridin-5-yl)oxy)-4-(2-(2-(2-cyclopropylphenyl)-4-ethylpiperazin-1-yl)-7-azaspiro[3,5]nonan-7-yl)-N-((3-nitro-4-(((tetrahydro-2H-pyran-4-yl)methyl)amino)phenyl)sulfonyl)benzamide], the half-maximal inhibitory concentration (IC50) in the test on RS4;11 cells (setting [1]) was found to be 0.5 nM; with RS4;11 cells (RS4-11, read-out: Celluclar activity (IC50, nM) RS 4, 11) it was 0.5 nM; with Molt-4 cells (MOLT-4, read-out: Celluclar activity (IC50, nM) Molt-4), 7350 nM; in the test with Molt-4 cells (setting [2]) it was 7350 nM.

With `O=C(NS(=O)(=O)c1ccc(NCC2CCOCC2)c([N+](=O)[O-])c1)c1ccc(-c2ccc(N3CC(F)=CC3c3ccccc3C3CC3)cc2)cc1Oc1cnc2[nH]ccc2c1` (centres unmarked) [Example A146, 3-((1H-pyrrolo[2,3-b]pyridin-5-yl)oxy)-4′-(2-(2-cyclopropylphenyl)-4-fluoro-2,5-dihydro-1H-pyrrol-1-yl)-N-((3-nitro-4-(((tetrahydro-2H-pyran-4-yl)methyl)amino)phenyl)sulfonyl)-[1,1′-biphenyl]-4-carboxamide], the results for the IC50 in the test on RS4;11 cells (setting [1]) and in the test on Molt-4 cells (setting [2]) were 22 nM and 1900 nM, respectively.

With `O=C(NS(=O)(=O)c1ccc(NCC2CCOCC2)c([N+](=O)[O-])c1)c1ccc(C2=CCC(N3CCCC3c3c(F)cccc3C3CC3)CC2)cc1Oc1cnc2[nH]ccc2c1` (centres unmarked) [Example C55, 3-((1H-pyrrolo[2,3-b]pyridin-5-yl)oxy)-4′-(2-(2-cyclopropyl-6-fluorophenyl)pyrrolidin-1-yl)-N-((3-nitro-4-(((tetrahydro-2H-pyran-4-yl)methyl)amino)phenyl)sulfonyl)-2′,3′,4′,5′-tetrahydro-[1,1′-biphenyl]-4-carboxamide], the IC50 in the test with RS4;11 cells (setting [3]) turned out to be 86 nM; in the test on Molt-4 cells (setting [2]) it was 5300 nM.

As for `O=C(NS(=O)(=O)c1ccc(NCC2(O)COC2)c([N+](=O)[O-])c1)c1ccc(-c2ccc(N3CCCC3c3ccccc3Cl)cc2)cc1Oc1cnc2[nH]ccc2c1` (centres unmarked) [Example G5, 3-((1H-pyrrolo[2,3-b]pyridin-5-yl)oxy)-4′-(2-(2-chlorophenyl)pyrrolidin-1-yl)-N-((4-(((3-hydroxyoxetan-3-yl)methyl)amino)-3-nitrophenyl)sulfonyl)-[1,1′-biphenyl]-4-carboxamide], the IC50 is 197 nM in the test with RS4;11 cells (setting [3]) and 4700 nM in the test on Molt-4 cells (setting [2]).

For `C=C(C)c1ccccc1C1CCCN1C1CC=C(c2ccc(C(=O)NS(=O)(=O)c3ccc(NCC4CCOCC4)c([N+](=O)[O-])c3)c(Oc3cnc4[nH]ccc4c3)c2)CC1` (centres unmarked) [Example C19, 3-((1H-pyrrolo[2,3-b]pyridin-5-yl)oxy)-N-((3-nitro-4-(((tetrahydro-2H-pyran-4-yl)methyl)amino)phenyl)sulfonyl)-4′-(2-(2-(prop-1-en-2-yl)phenyl)pyrrolidin-1-yl)-2′,3′,4′,5′-tetrahydro-[1,1′-biphenyl]-4-carboxamide], the IC50 was 204 nM in the test with RS4;11 cells (setting [3]) and 7270 nM with Molt-4 cells (setting [2]).

In the case of `O=C(NS(=O)(=O)c1ccc(N2CC3(CCOCC3)C2)c([N+](=O)[O-])c1)c1ccc(-c2ccc(N3CCCC3c3ccccc3Cl)cc2)cc1Oc1cnc2[nH]ccc2c1` (centres unmarked) [Example G7, 3-((1H-pyrrolo[2,3-b]pyridin-5-yl)oxy)-4′-(2-(2-chlorophenyl)pyrrolidin-1-yl)-N-((3-nitro-4-(7-oxa-2-azaspiro[3.5]nonan-2-yl)phenyl)sulfonyl)-[1,1′-biphenyl]-4-carboxamide], the values for the IC50 in the test with RS4;11 cells (setting [3]) and in the test on Molt-4 cells (setting [2]) were 3850 nM and greater than 10000 nM, respectively.

Take `O=C(NS(=O)(=O)c1ccc(NCC2CN(C3COC3)CCO2)c([N+](=O)[O-])c1)c1ccc(C2=CCC(N3CCCC3c3ccccc3C3CC3)CC2)cc1Oc1cnc2[nH]ccc2c1` (centres unmarked) [Example G11, 3-((1H-pyrrolo[2,3-b]pyridin-5-yl)oxy)-4′-(2-(2-cyclopropylphenyl)pyrrolidin-1-yl)-N-((3-nitro-4-(((4-(oxetan-3-yl)morpholin-2-yl)methyl)amino)phenyl)sulfonyl)-2′,3′,4′,5′-tetrahydro-[1,1′-biphenyl]-4-carboxamide]: the figures for the IC50 in the test on RS4;11 cells (setting [3]) and in the test with Molt-4 cells (setting [2]) were 40 nM and greater than 10000 nM, respectively.

For the compound `O=C(NS(=O)(=O)c1ccc(NCC2CCOCC2)c([N+](=O)[O-])c1)c1ccc(-c2cnn(C3CC(N4CCC[C@H]4c4ccccc4C4CC4)C3)c2)cc1Oc1cnc2[nH]ccc2c1` (stereo partly drawn) [Example B38, (S)-2-((1H-pyrrolo[2,3-b]pyridin-5-yl)oxy)-4-(1-(3-(2-(2-cyclopropylphenyl)pyrrolidin-1-yl)cyclobutyl)-1H-pyrazol-4-yl)-N-((3-nitro-4-(((tetrahydro-2H-pyran-4-yl)methyl)amino)phenyl)sulfonyl)benzamide], the IC50 with RS4;11 cells (setting [1]) is 115 nM; with Molt-4 cells (setting [2]), greater than 10000 nM.

For `O=C(NS(=O)(=O)c1ccc(NCC2CCOCC2)c([N+](=O)[O-])c1)c1ccc(-c2ccc(N3CCC[C@@H]3c3ccccc3C3=CCN(Cc4ccccc4)CC3)cc2)cc1Oc1cnc2[nH]ccc2c1` [Example A108, (R)-3-((1H-pyrrolo[2,3-b]pyridin-5-yl)oxy)-4′-(2-(2-(1-benzyl-1,2,3,6-tetrahydropyridin-4-yl)phenyl)pyrrolidin-1-yl)-N-((3-nitro-4-(((tetrahydro-2H-pyran-4-yl)methyl)amino)phenyl)sulfonyl)-[1,1′-biphenyl]-4-carboxamide], the IC50 with RS4;11 cells (setting [1]) is 32 nM; in the test with Molt-4 cells (setting [2]), greater than 10000 nM.

Take `O=C(NS(=O)(=O)c1ccc(NCC2CCOCC2)c([N+](=O)[O-])c1)c1ccc(C2=CCC(N3CCCC3c3cccc(C4CC4)c3)CC2)cc1Oc1cnc2[nH]ccc2c1` (centres unmarked) [Example C4, 3-((1H-pyrrolo[2,3-b]pyridin-5-yl)oxy)-4′-(2-(3-cyclopropylphenyl)pyrrolidin-1-yl)-N-((3-nitro-4-(((tetrahydro-2H-pyran-4-yl)methyl)amino)phenyl)sulfonyl)-2′,3′,4′,5′-tetrahydro-[1,1′-biphenyl]-4-carboxamide]: the IC50 worked out at 112 nM with RS4;11 cells (setting [3]) and 112 nM in the test on RS4;11 cells (RS4-11, read-out: Cellular activity (IC50, nM) RS4, 11).

A word on the IC50: it is the concentration that inhibits the measured activity by half.
